Measurements reported in the supplement of paper PMC11316812.
± gives the standard deviation of the averaged measurements.

Experiments:
[1] = test system: MCF7; assay: percentage of EdU-negative (G0-arrested) nuclei per well, 72 h; reference: the tested protein was the secreted form or ectodomain; higher = more G0 arrest
[2] = test system: hTERT-HMEC; assay: percentage of EdU-negative (G0-arrested) nuclei per well, 72 h; higher = more G0 arrest; details: reference: the tested protein was the secreted form or ectodomain
[3] = protein concentration 0.0151429 µM
[4] = protein concentration 0.151429 µM
[5] = protein concentration 0.0158725 µM
[6] = protein concentration 0.158725 µM
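Note: secreted proteins added to cultured cells, EdU pulse at the end, nuclei found by Hoechst imaging, EdU status from nuclear versus surrounding ring intensity ratio, PBS as neutral control.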

Substance | percentage of EdU-negative [1, 3] [%] | percentage of EdU-negative [1, 4] [%] | percentage of EdU-negative [2, 3] [%] | percentage of EdU-negative [2, 4] [%] | percentage of EdU-negative [1, 5] [%] | percentage of EdU-negative [1, 6] [%] | percentage of EdU-negative [2, 5] [%] | percentage of EdU-negative [2, 6] [%]
MDKFWWHAAWGLCLVPLSLA[about 200 residues not written out]ATTLMSTSATATETATKRQETWDWFSWLFLPSESKNHLHTTTQMAGTSSNTISAGWEPNEENEDERDRHLSFSGSGIDDDEDFISSTISTTPRAFDHTKQNQDWTQWNPSHSNPEVLLQTTTRMTDVDRNGTTAYEGNWNPEAHPPLIHHEHHEEEETPHSTSTIQATPSSTTEETATQKEQWFGNRWHEGYRQTPKEDSHSTTGTAAASAHTSHPMQGRTTPSPEDSSWTDFFNPISHPMGRGHQAGRRMDMDSSHSITLQPTANPNTGLVEDLDRTGPLSMTTQQSNSQSFSTSHEGLEEDKDHPTTSTLTSSNRNDVTGGRRDPNHSEGSTTLLEGYTSHYPHTKESRTFIPVTSAKTGSFGVTAVTVGDSNSNVNRSLSGDQDTFHPSGGSHTTHGSESDGHSHGSQEGGANTTSGPIRTPQIPEWLIILASLLALALILAVCIAVNSRRRCGQKKKLVINSGNGAVEDRKPSGLNGEASKSQEMVHLVNKESSETPDQFMTADETRNLQNVDMKIGV [[…]] | 22.8 ± 1.7 | 26 ± 1.8 | 5.11 ± 0.22 | 8.044 ± 0.08 | – | – | – | –
MGPGVLLLLLVATAWHGQG[about 500 residues not written out]VVVACMSIMALLLLLLLLLLYKYKQKPKYQVRWKIIESYEGNSYTFIDPTQLPYNEKWEFPRNNLQFGKTLGAGAFGKVVEATAFGLGKEDAVLKVAVKMLKSTAHADEKEALMSELKIMSHLGQHENIVNLLGACTHGGPVLVITEYCCYGDLLNFLRRKAEAMLGPSLSPGQDPEGGVDYKNIHLEKKYVRRDSGFSSQGVDTYVEMRPVSTSSNDSFSEQDLDKEDGRPLELRDLLHFSSQVAQGMAFLASKNCIHRDVAARNVLLTNGHVAKIGDFGLARDIMNDSNYIVKGNARLPVKWMAPESIFDCVYTVQSDVWSYGILLWEIFSLGLNPYPGILVNSKFYKLVKDGYQMAQPAFAPKNIYSIMQACWALEPTHRPTFQQICSFLQEQAQEDRRERDYTNLPSSSRSGGSGSSSSELEEESSSEHLTCCEQGDIAQPLLQPNNYQFC [[…]] | – | – | – | – | 26 ± 0.85 | 28.9 ± 1.2 | 5.93 ± 0.54 | 6.01 ± 0.39
